Screen size: about 46,000 compounds; about 60 (0.1%) were called active. About 3% were inconclusive and are not listed. The call rests on the fitted dose curve; in most records, active means well fitted inhibition curve with a large enough effect; inconclusive means small, poorly fitted or top-dose-only effect; inactive means no such curve, though single readings can be large or run the other way. The list shows a part of the results.

The nature of the test: Primary qHTS assay for Inhibitors of ovarian cancer metastasis using an organotypic tumor microenvironment (TME) model. Further: nearly all actives have a fitted effect of over 65% in size.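 On activity change, negative = inhibition: plate controls were DMSO wells for no effect and tomatine positive control wells for full effect.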 As to conditions: SKOV3ip1-GFP adhesion/invasion on 3D omental model, fluorescence; series mostly up to 45.8 µM; activity change, negative = inhibition: at the top concentration. A digest of the protocol:
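qHTS, 4-pt dose (0.36-46 umol/L); SKOV3ip1-GFP, 1,200 cells/well, no FBS; primary omental fibroblast/mesothelial co-culture 48 h pre-grown; 2 h RT + 16 h 37 C; PBS wash, 4% PFA; GFP count 488/509 nm.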
Background: In qHTS, concentration-response curves come from the screen itself.
Regarding `O=C(CSc1nnc(-c2ccccc2F)o1)Nc1ccccc1Cl`, the result was inactive.

Take `CCOc1ccccc1NC(=O)CSc1ncc(S(=O)(=O)c2ccc(C)c(C)c2)c(N)n1`: the “activity change, negative = inhibition” value was inactive: 8.83%.

For the compound `CNC(=O)c1c(NC(=O)Cc2coc3ccc(C)cc23)sc2c1CCCC2`, the “activity change, negative = inhibition” value is inactive: -4.45%.

Consider `COc1ccc(-c2noc(-c3ccc(NCC4CCCO4)c([N+](=O)[O-])c3)n2)cc1` (stereo not drawn), for which the “activity change, negative = inhibition” value is inactive: 18.9%.

With `O=C(CSc1nc2c([nH]c3ccccc32)c(=O)n1-c1ccccc1)Nc1ccc(Cl)c(Cl)c1`, the “activity change, negative = inhibition” value was inactive: 5.02%.

`CCc1nn(CC(=O)Nc2c(C)cccc2C)c(=O)c2cc3sccc3n12`: the “activity change, negative = inhibition” value is inactive: 1.57%.

Take `COc1ccc(-c2cc(OC(=O)c3cccc(Cl)c3)c3c(C)oc(C)c3c(=O)c2)cc1`: the “activity change, negative = inhibition” value was inactive: -6.61%.

As for `COc1cc(NC(=O)N2CCC3(CC2)Nc2ccccc2-n2cccc23)cc(OC)c1OC`, the “activity change, negative = inhibition” value was inactive: 4.52%.

`CCOc1ccc(NC(=O)Cn2nnc(C(=O)NCCc3ccccc3)c2N)cc1`: the “activity change, negative = inhibition” value was inactive: 4.61%.

`Cc1cn2c(=O)c(S(=O)(=O)N3CCN(c4cc(Cl)ccc4C)CC3)c(C)nc2s1`: the “activity change, negative = inhibition” value is inactive: 9.1%.

Take `O=C(NCCc1ccc(Cl)cc1)C1COc2ccccc2C1` (stereo not drawn): the “activity change, negative = inhibition” value is inactive: -3.57%.

With `Cc1nc(-c2ccc(S(=O)(=O)N3CCN(c4cc(Cl)ccc4C)CC3)cc2)co1`, the “activity change, negative = inhibition” value was inactive: -2.99%.

In the case of `O=C(c1ccc(F)cc1)n1nc(-c2cccnc2)nc1NCc1ccc(F)cc1`, the “activity change, negative = inhibition” value is inactive: 9.76%.

In the case of `Cc1ccc2nc(-c3cccnc3)c(Nc3ccc(C(C)C)cc3)n2c1`, the “activity change, negative = inhibition” value was inactive: -1.66%.

In the case of `O=C(COc1ccc2ccccc2c1)NC1CC(=O)N(c2ccccc2)C1` (stereo not drawn), the “activity change, negative = inhibition” value was inactive: -0.582%.

As for `Cc1ccc(S(=O)(=O)Nc2nc3ccccc3nc2Nc2ccc3nsnc3c2)cc1`, the “activity change, negative = inhibition” value was inactive: -10.3% [at 23.2 µM].

Turning to `O=C(CSc1c2c(nc3cc(Cl)ccc13)CCCC2)N1CCN(c2ccccc2F)CC1`, the “activity change, negative = inhibition” value is inactive: -28.1%.

For the compound `CCOC(=O)c1noc2ncn(CC(=O)Nc3cccc(Cl)c3)c(=O)c12`, the “activity change, negative = inhibition” value is inactive: 12.5%.

As for `COc1ccccc1NC(=O)CSc1oc(-c2ccccc2)nc1S(=O)(=O)c1ccc(C)cc1`, the “activity change, negative = inhibition” value is inactive: -0.775%.

Turning to `COc1ccc2c(Sc3ccc(Cl)cc3)c(C(=O)N3CCC(C)CC3)[nH]c2c1`, the “activity change, negative = inhibition” value was inactive: -16.4%.

On to `CCNC(=O)CC1C(=O)N(c2ccc(C)cc2)C(=O)N1CCC(C)C` (stereo not drawn), for which the “activity change, negative = inhibition” value is inactive: 0.627%.

Turning to `O=C(Cn1c(=O)oc2cc(S(=O)(=O)N3CCCC3)ccc21)Nc1ccc(F)cc1F`, the “activity change, negative = inhibition” value is inactive: -19.5%.

For the compound `Cc1ccc(S(=O)(=O)c2nc(-c3cccs3)oc2SC(C)C)cc1`, the “activity change, negative = inhibition” value was inactive: 2.46%.

With `N#Cc1ccccc1NC(=O)C(=O)NCCc1csc(-c2ccc(F)cc2)n1`, the compound was called inactive.

As to `CCOC(=O)c1ccc(NC(=O)c2cn(-c3ccccc3)nc2-c2ccc(OC)c(OC)c2)cc1`, the “activity change, negative = inhibition” value was inactive: 4.39%.

On to `O=C(Nc1cccc(-c2nc3cccnc3s2)c1)c1cccc(Br)c1`, for which the “activity change, negative = inhibition” value was inactive: -18.4%.

As for `CCOC(=O)C1=C(N)Oc2ccc(Br)cc2C1C(C#N)C(=O)OCC` (stereo not drawn), the “activity change, negative = inhibition” value is inactive: -12.1%.

As to `CCOC(=O)c1nc(Nc2ccc(C(=O)OC)cc2)c2ccccc2n1`, the “activity change, negative = inhibition” value was inactive: -4.43%.

As for `O=C(c1cccc(Cl)c1)n1nc(-c2cccnc2)nc1NCc1ccccc1`, the “activity change, negative = inhibition” value was inactive: -3.27%.

On to `CCCCOc1cccc(NC(=O)c2cccc(C(=O)Nc3cccc(OCCCC)c3)c2)c1`, for which the “activity change, negative = inhibition” value was inactive: -14.4%.

As to `CCOC(=O)c1c(C)oc2nc(C)nc(NCc3cccc(Cl)c3)c12`, the “activity change, negative = inhibition” value was inactive: 0.162%.

Regarding `Cc1ccc(C(=O)Nc2nc(-c3nnn(-c4cccc(C(F)(F)F)c4)c3C)ns2)cc1`, the “activity change, negative = inhibition” value is inactive: -8.63%.

`CCc1ccc(-n2c(=O)c3cccnc3n2CC(=O)Nc2cc(OC)ccc2OC)cc1`: the “activity change, negative = inhibition” value was inactive: -2.64%.

In the case of `CCc1ccccc1NC(=O)c1ccc(=O)n(Cc2ccc(F)cc2)c1`, the outcome was inactive.

On to `COc1cccc(C(=O)NCC(=O)OCc2cc(=O)n3ccsc3n2)c1`, for which the compound was called inactive.

As to `CSCCC(NS(=O)(=O)c1ccc2c(c1)oc(=O)n2C)C(=O)N1CCN(c2ccc(C(C)=O)cc2)CC1` (stereo not drawn), the “activity change, negative = inhibition” value is inactive: 1.97%.

Take `O=c1c(S(=O)(=O)c2cccc(Cl)c2)cn(Cc2ccccc2)c2cc(N3CCCCC3)c(F)cc12`: the “activity change, negative = inhibition” value was inactive: -10.2%.

For the compound `CCN(CC)S(=O)(=O)c1ccc2[nH]cc(C(=O)NCCc3ccccc3)c(=O)c2c1`, the “activity change, negative = inhibition” value was inactive: -10.7%.

On to `COc1ccccc1NC(=O)CN1C(=O)CSc2ccc(S(=O)(=O)N3CCCC3)cc21`, for which the compound was called inactive.

On to `COc1cc(OC)cc(-c2nc3nc(C)c(CCC(=O)NCCC(C)C)c(C)n3n2)c1`, for which the compound was called inactive.

Turning to `CCOC(=O)c1c(S(=O)(=O)NCC(=O)Nc2ccc(F)cc2C)c(C)n(C)c1C`, the “activity change, negative = inhibition” value was inactive: 4.8%.

Regarding `Cc1cc(C)c(NC(=O)CCCn2c(C)c3cnn(-c4ccccc4)c(=O)c3c2C)c(C)c1`, the outcome was inactive.

As to `Cc1ccc(CCNC(=O)c2cn(C)c3ccc(S(=O)(=O)N4CCC(C)CC4)cc3c2=O)cc1`, the “activity change, negative = inhibition” value was inactive: -10.8%.

Regarding `CC(C)CC(=O)Nc1nnc(SCc2cc(=O)n3ccccc3n2)s1`, the call was inactive.

As for `CCOc1ccc(-n2c(=O)c3c(C)c(C)sc3n(CC(=O)N3CCC(C)CC3)c2=O)cc1`, the “activity change, negative = inhibition” value was inactive: -2.45%.

On to `Cc1cccc(CNC(=O)c2ccc(C)c(-n3c(C)nc4cccnc43)c2)c1`, for which the “activity change, negative = inhibition” value was inactive: 4.5%.

For the compound `O=C(NCc1ccccc1Cl)c1ccc(Cn2c(=O)c3cccn3c3cccnc32)cc1`, the “activity change, negative = inhibition” value is inactive: -6.18%.

As to `COc1cccc(-n2cc(C(=O)OCc3ccc(Cl)cc3)c3ccccc3c2=O)c1`, the “activity change, negative = inhibition” value was inactive: -6.53%.

These data come from PubChem BioAssay AID1963576 (National Center for Advancing Translational Sciences (NCATS), 2024).
